Data on 120 sequences can be found in the supplement of paper PMC10126150.

Sequences with one replicate were seen in a single cluster, so their values are uncertain.
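Also: ATP exposure 15 min at 22 °C before imaging.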

The data set concerns ATP. In words: switch fluorescence ratio, 500 uM ATP over buffer (Cy3 cluster intensity, sum of 5 cycles each) (fold (ratio)); higher = stronger signal-on switching upon ATP binding; sequences stand for … in TCGTCGGCAGCGTCAGATGTGTATAAGAGACAGTTTTTTTTTTTTTTTTTTTTTTTTT…TC. To be noted: aptamer strand: ATP DNA aptamer (quencher-CACCTGGGGGAGTATTGCGGAGGAAGG + anchor), 100 nM annealed; ATP concentration: 500 uM; one replicate. The procedure, abridged:
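Cy3-labelled switching-strand clusters on a modified Illumina MiSeq flow-cell were annealed to 100 nM quencher-labelled ATP aptamer, imaged in selection buffer, then imaged after 15 min with 500 uM ATP at 22 °C. Five buffer/ATP cycles ran, with NaOH stripping and re-annealing between them. The fluorescence ratio is summed target-cycle over summed buffer-cycle Cy3 intensity per cluster, averaged per switch-domain sequence. Clusters outside 100-1000 RFU were excluded.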
On to GCACTGCTGT, for which the switch fluorescence ratio was 1. The value for TAGTTCCGTG was 1.06; that for AGGGGGAAAG was 0.986; that for TCTTTTGTAC was 1.19. To TTACGTGCCA belongs 1; to GCAGGCTTTT, 0.99; to TCGCGCGCGG, 0.957. To GGTAGAGAGG belongs 0.999; to GAGGGTAGC, 0.948.

For ATATGACAGT, the switch fluorescence ratio is 1.04. To CGACATCTTT belongs 1.01. On to CCGGATAGGG, for which the switch fluorescence ratio came out at 1.04.

As to GACAGAGACA, the switch fluorescence ratio was found to be 0.995. To GTCTTGACGT belongs 0.979; to TGCTCAAAGG, 0.981; to GGGAAACCAG, 0.993. AAGCTTGTGG: the switch fluorescence ratio amounted to 0.98. AAGACAAAAA: the switch fluorescence ratio amounted to 0.993. The value for TTGTGGTTAA was 1.02. ATATTATAGA: the switch fluorescence ratio turned out to be 1.05. To CACGACGGCC belongs 1.08; to ATCCTCAATC, 2.03. TTTCGCTCAT: the switch fluorescence ratio was 1.02. The value for ACAACCGCTG was 1.07; that for TATGAACGTG was 0.998. The value for GTGGCTGCAA was 1.15; that for GTGAGGCGCG was 1.04; that for GGATCGGCGG was 1.03. With GACCGTCTAG, the switch fluorescence ratio is 1.01. To CGGTGTCTGC belongs 1.07; to GAAGACGGGT, 1.02; to TCTGAAGGTA, 1.04. The value for TAGACCGGAT was 1.02. The value for GATACTTTCC was 2.15; that for TAGAGGCGCG was 0.985. Regarding TCGGTACGAA, the switch fluorescence ratio came out at 1. To GAGCAGGCCT belongs 0.999; to CGTGCCAACT, 1.01; to CCTTAAAAGT, 1.02.

As to ATGAGATCGG, the switch fluorescence ratio was determined as 0.996.

Turning to AGTTTGTGTA, the switch fluorescence ratio was found to be 1.02. The value for GTCGATTTTC was 1.01; that for GCTGCAGGT was 1.12. For the sequence ATACAGTAGT, the switch fluorescence ratio was found to be 1.05.

As to TGCCAGCAAA, the switch fluorescence ratio was 0.997. The value for CGTGAAATCA was 0.998; that for ACTTTTCAGT was 0.987.

On to ACTTGGCCTG, for which the switch fluorescence ratio stood at 0.97.

With AATTATGTTC, the switch fluorescence ratio is 0.992. The value for AGCATACGTG was 1.09. The value for GCTATCCAGA was 1.04. To GTAGTTTTT belongs 0.985. For AATGAAGTTG, the switch fluorescence ratio was 0.971. The value for CCAGGGCACG was 0.977. To CACTTCAACA belongs 1.08; to CAGATTTCAG, 0.964; to CTATAAGCT, 1.05. To AATCTCTAGC belongs 1; to AGCAACTGCA, 1.02. On to GGTGGATGTA, for which the switch fluorescence ratio stood at 0.899.

Consider CGGCAATCAA, for which the switch fluorescence ratio was determined as 2.19. The value for ATCAGGGCTG was 0.949. The value for ACATTCAGGC was 1.03; that for TTAATACGGT was 1.03; that for TGGAGTGTCT was 0.971.

In the case of TTTCGTATAT, the switch fluorescence ratio was 1.02. The value for AGCCGGCCAG was 1.07; that for GGTCGGGCGC was 1.02; that for GCCTCTCGAG was 1.02. The value for TCCGGATGTT was 0.986. To ACCAGCGCTT belongs 1.02; to AATCCCCAAC, 1.05; to TCCGCGTCTC, 2.57.

As for AAACAGACAG, the switch fluorescence ratio stood at 0.981.

As to GTTGTGATCA, the switch fluorescence ratio was found to be 1.06.

With AATTCCTCGG, the switch fluorescence ratio was found to be 1.28. The value for GGATACATGG was 1.06.

With TGAACTTACT, the switch fluorescence ratio worked out at 1.12. To TTGAAGGCCA belongs 0.994; to GGTGAGTTT, 0.997. CCTGTCCTGT: the switch fluorescence ratio was 1.03.

Take GAGTCTTGTC: the switch fluorescence ratio was 1.05. To CAGCGCTAGT belongs 0.98. The value for GTAACGTTTC was 1.06; that for GACATTATAG was 0.95; that for TAAGCGAGGC was 1.09.

On to TCATGGGTGT, for which the switch fluorescence ratio is 1.03. In the case of AGGTGGTAGC, the switch fluorescence ratio amounted to 0.978.

In the case of AGACTAATCT, the switch fluorescence ratio stood at 1.01. In the case of CCGTTGCCTA, the switch fluorescence ratio amounted to 1.05. The value for ATACTGCGAA was 1.05. To TCCTATATGA belongs 0.978; to TGACCACATT, 1.07; to GGTTTAGAAG, 0.984.

Turning to TCGAGTATGC, the switch fluorescence ratio was 1.05. The value for TTGGAAAACG was 0.993; that for AACGTACAGT was 1.52.

For the sequence TGCGGGGCGC, the switch fluorescence ratio amounted to 1.06. The value for TCTGGTCCCT was 1.01; that for GGGAGCGGGA was 1.02. To ACATGCATGG belongs 1.01. Take GGTACTGCC: the switch fluorescence ratio was 1.09.

For TATATCGGTA, the switch fluorescence ratio stood at 1.01. To CCAAGAATTC belongs 1.03. In the case of GAGCACCGGC, the switch fluorescence ratio is 1.03. Take AATGTATGAT: the switch fluorescence ratio was found to be 0.961. With AGGGTTCTG, the switch fluorescence ratio worked out at 1.01.

Take TAAGTCTGC: the switch fluorescence ratio stood at 0.973. The value for CTGTTGAGTC was 1.02; that for ACTTGTTCTG was 0.996; that for CTGTGCTCAA was 1.06. The value for AAATATTCA was 1.02; that for AAGGCACGTA was 1.06; that for CTCCTTGCGC was 1.46. To AAAGATACGG belongs 1.14. For TCTACCCCAG, the switch fluorescence ratio turned out to be 3.67. As to TTCTTGCTGA, the switch fluorescence ratio turned out to be 1.02. To ACATGGAATA belongs 0.983; to GCGTAGAGTT, 1.06. The value for CAGGATCCAC was 1.
